Laboratory results from patent publication EP2057185B1, “POLYMYXIN DERIVATIVES AND USES THEREOF” (Northern Antibiotics Oy, priority 2006, dated 2008).
Values joined by “and” are separate entries in the source; they are usually repeats but may differ in a detail not shown here. Equal entries are not always repeated. At least one peptide structure holds a part that was inferred or is arguable (an end, a ring closure or a residue). Bridge positions count the residues as written; N and C are the ends. Square brackets hold non-standard residues; d marks the D form. Peptide text beside a SMILES is read from it. * marks the point of attachment. Octanoyl = CCCCCCCC(=O)*; Dab = NCC[C@H](N)C(=O)O

Legend:
E. coli IH3080 [1] = assay: Growth inhibition around wells on LB agar plates; format: cell-based, Escherichia coli; details: 18 h at 37°C
A. baumannii ATCC 19606 [2] = assay: Growth inhibition around wells on LB agar plates; format: cell-based, Acinetobacter baumannii
Description: (§1) From an overnight-grown culture of IH3080 on LB agar, a suspension of approx. 10^8 cells/ml was prepared in 0.9% NaCl. Aliquots of this suspension were then pipetted on the agar plates and the plates were gently shaken to spread the suspension evenly on the entire surface of the plate. Thereafter, the unabsorbed part of the suspension was removed by using a Pasteur pipette. After the surface had dried, small wells (diameter, 2 mm) were drilled on the plates (five wells per plate) by using a sterile sharp-edged narrow metal tube, single-use pipette tip, and vacuum suction. Samples (4 µl and 10 µl) of the peptide solution in 0.9% NaCl (at concentrations of 1 µg/ml and 0.1 µg/ml) were then pipetted to the wells and the sample fluids were allowed to absorb. Controls included 0.9% NaCl solution without the compound to be tested. The plates were then incubated for 18 h at 37°C whereafter the diameters of growth inhibition zones around each well were measured; the diameter of the well itself was […]. Finally, the diameters were converted to surface areas of growth inhibition (in square mm).
Direct antibacterial activity of twelve NAB compounds against Acinetobacter baumannii ATCC 19606 and Pseudomonas aeruginosa ATCC 27853 was tested by using the susceptibility determination method described in Example 2. Five compounds (NAB7062, NAB734, NAB737, NAB739, and NAB740) had notable activity against A. baumannii. […] The antibacterial activity of NAB739 and NAB740 were as strong as or even stronger than that of polymyxin B.

[3] = test system: Ps. aeruginosa ATCC 27853; assay: Growth inhibition around wells on LB agar plates; format: cell-based, Pseudomonas aeruginosa
E. coli ATCC25922 = assay: Growth inhibition around wells on LB agar plates; format: cell-based, Escherichia coli; details: growth inhibition area around well
Description: as §1
(§2) The susceptibility of eleven Gram-negative bacterial strains (nine different species) to NAB734 and polymyxin B was compared by using the susceptibility determination method described in Example 2. […]

K. pneumoniae ATCC13883 = assay: Growth inhibition around wells on LB agar plates; format: cell-based, Klebsiella pneumoniae; details: growth inhibition area around well
Description: as §1
(§3) The susceptibility of eleven Gram-negative bacterial strains (nine different species) to NAB734 and polymyxin B was compared by using the susceptibility determination method described in Example 2. The strains included those belonging to the species of Serratia marcescens and Proteus mirabilis, both species generally known to be resistant to polymyxin. Furthermore, the susceptibility determination was also performed by using the Gram-positive bacterium, Staphylococcus aureus, also generally known to be polymyxin-resistant. Ten of the strains originated from ATCC (American Type Culture Collection, Manassas, VA, U.S.A.), and one from CCUG (Culture Collection of University of Gothenburg, Sweden). The source of E. coli IH3080 has been described in Example 2. Polymyxin B sulfate was from Sigma-Aldrich (St. Louis, MO, USA).

K. pneumoniae CCUG45421 = assay: Growth inhibition around wells on LB agar plates; format: cell-based, Klebsiella pneumoniae; details: growth inhibition area around well
Description: as §1, §3

K. oxytoca ATCC 13182 = assay: Growth inhibition around wells on LB agar plates; format: cell-based, Klebsiella oxytoca; details: growth inhibition area around well
Description: as §1, §2

E. cloacae ATCC23355 = assay: Growth inhibition around wells on LB agar plates; format: cell-based, Enterobacter cloacae; details: growth inhibition area around well
Description: as §1, §2

C. freundii ATCC8090 = assay: Growth inhibition around wells on LB agar plates; format: cell-based, Citrobacter freundii; details: growth inhibition area around well
Description: as §1, §2

S. marcescens ATCC8100 = assay: Growth inhibition around wells on LB agar plates; format: cell-based, Serratia marcescens; details: growth inhibition area around well
Description: as §1, §2

P. mirabilis ATCC29906 = assay: Growth inhibition around wells on LB agar plates; format: cell-based, Proteus mirabilis; details: growth inhibition area around well
Description: as §1, §2

S. aureus ATCC 25923 = assay: Growth inhibition around wells on LB agar plates; format: cell-based, Staphylococcus aureus; details: growth inhibition area around well
Description: as §1, §2

E. coli IH3080 [4] = assay: Growth inhibition around wells on LB plates containing rifampin (sensitization); format: cell-based, Escherichia coli; details: well containing 4 µg of compound
A. baumannii ATCC 19606 [5] = assay: as above; format: cell-based, Acinetobacter baumannii; details: well containing 4 µg
[6] = test system: Ps. aeruginosa ATCC 27853; assay: as above; format: cell-based, Pseudomonas aeruginosa; details: well containing 4 µg
[7] = growth inhibition area around a well containing 4 µg
[8] = growth inhibition area around a well containing 10 µg

CCCCCCCC(=O)N[C@H](C(=O)N[C@H](CO)C(=O)N[C@H]1CCNC(=O)[C@H]([C@@H](C)O)NC(=O)[C@H](CCN)NC(=O)[C@H](CCN)NC(=O)[C@H]([C@@H](C)O)NC(=O)[C@@H](Cc2ccccc2)NC(=O)[C@H](CCN)NC1=O)[C@@H](C)O [NAB 734, OA-Thr-DSer-cy[Dab-Dab-DPhe-Thr-Dab-Dab-Thr-]] (Octanoyl-T[dS][Dab][Dab][dF]T[Dab][Dab]T; lactam 3-C)
Antibacterial activity at 4 µg (E. coli IH3080 [1]; growth inhibition area around a well containing 4 µg of compound): 113 square millimeters | Antibacterial activity at 10 µg (E. coli IH3080 [1]; growth inhibition area around a well containing 10 µg of compound): 177 square millimeters and 154 square millimeters | Antibacterial activity 4 µg (A. baumannii ATCC 19606 [2]; [7]): 38 square millimeters and 57 square millimeters | Antibacterial activity 10 µg (A. baumannii ATCC 19606 [2]; [8]): 95 square millimeters and 79 square millimeters | Antibacterial activity 4 µg [3, 7]: 13 square millimeters | Antibacterial activity 10 µg [3, 8]: 50 square millimeters | Antibacterial activity 4 µg (E. coli ATCC25922; 4 µg): 133 square millimeters | Antibacterial activity 10 µg (E. coli ATCC25922; 10 µg): 177 square millimeters | Antibacterial activity 4 µg (K. pneumoniae ATCC13883; 4 µg): 64 square millimeters | Antibacterial activity 10 µg (K. pneumoniae ATCC13883; 10 µg): 113 square millimeters | Antibacterial activity 4 µg (K. pneumoniae CCUG45421; 4 µg): 64 square millimeters | Antibacterial activity 10 µg (K. pneumoniae CCUG45421; 10 µg): 104 square millimeters | Antibacterial activity 4 µg (K. oxytoca ATCC 13182; 4 µg): 95 square millimeters | Antibacterial activity 10 µg (K. oxytoca ATCC 13182; 10 µg): 143 square millimeters | Antibacterial activity 4 µg (E. cloacae ATCC23355; 4 µg): 133 square millimeters | Antibacterial activity 10 µg (E. cloacae ATCC23355; 10 µg): 177 square millimeters | Antibacterial activity 4 µg (C. freundii ATCC8090; 4 µg): 133 square millimeters | Antibacterial activity 10 µg (C. freundii ATCC8090; 10 µg): 177 square millimeters | Antibacterial activity 4 µg (S. marcescens ATCC8100; 4 µg): 0 square millimeters | Antibacterial activity 10 µg (S. marcescens ATCC8100; 10 µg): 0 square millimeters | Antibacterial activity 4 µg (P. mirabilis ATCC29906; 4 µg): 0 square millimeters | Antibacterial activity 10 µg (P. mirabilis ATCC29906; 10 µg): 0 square millimeters | Antibacterial activity 4 µg (S. aureus ATCC 25923; 4 µg): 0 square millimeters | Antibacterial activity 10 µg (S. aureus ATCC 25923; 10 µg): 0 square millimeters | Antibacterial activity in the presence of rifampin concn (µg/ml) of 0 (E. coli IH3080 [4]; plates with no rifampin): 113 square millimeters | Antibacterial activity in the presence of rifampin concn (µg/ml) of 0.1 (E. coli IH3080 [4]; rifampin 0.1 µg/ml): 154 square millimeters | Antibacterial activity in the presence of rifampin concn (µg/ml) of 1.0 (E. coli IH3080 [4]; rifampin 1.0 µg/ml): 201 square millimeters | Antibacterial activity, rifampin 0 (A. baumannii ATCC 19606 [5]; no rifampin (control)): 38 square millimeters | Antibacterial activity, rifampin 0.1 (A. baumannii ATCC 19606 [5]; rifampin 0.1 µg/ml): 201 square millimeters | Antibacterial activity, rifampin 0.3 (A. baumannii ATCC 19606 [5]; rifampin 0.3 µg/ml): 283 square millimeters | Antibacterial activity, rifampin 0 ([6]; no rifampin (control)): 13 square millimeters | Antibacterial activity, rifampin 0.1 ([6]; rifampin 0.1 µg/ml): 20 square millimeters | Antibacterial activity, rifampin 0.3 ([6]; rifampin 0.3 µg/ml): 20 square millimeters
